By Kd is commonly meant the equilibrium constant for the complex coming apart.

Results on one molecule are retold here after publication PMC7561547, “Population pharmacokinetic analysis of phase 1 bemarituzumab data to support phase 2 gastroesophageal adenocarcinoma FIGHT trial” (Cancer Chemotherapy and Pharmacology, 2020).

The assay concerns the target Bemarituzumab (human (humanized IgG1)). Briefly: SPR; Biacore T100; bemarituzumab captured on a dextran chip via covalently attached protein A; five concentrations (0 nM to 1000 nM) of FcγRIIIa (V158) in HEPES buffered saline with 0.05% surfactant P20 flowed over; 1:1 binding model. The note with it: both partners purified. (In general: Surface plasmon resonance follows binding to a sensor surface in real time, without labels.)

B1: human Fc gamma receptor IIIA (V158) (receptor)
chain: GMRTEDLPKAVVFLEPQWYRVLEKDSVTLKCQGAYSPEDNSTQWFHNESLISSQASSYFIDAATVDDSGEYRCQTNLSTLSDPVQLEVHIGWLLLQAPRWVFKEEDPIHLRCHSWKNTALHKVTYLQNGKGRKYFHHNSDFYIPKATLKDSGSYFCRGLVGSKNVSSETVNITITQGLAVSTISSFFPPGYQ
modifications: Soluble analyte in SPR; construct limits are not given, so the extracellular region ([…]) is taken by convention from the entry features. V158 is the conventional allotype numbering, equal to pre
As for B1, the affinity, expressed as Kd, was 9.2 nM.
